# This is one part of the list.
# Assays:
# Test in all cases: glycan array binding signal (z-score within array); higher = stronger binding
# Settings in all cases: glycan notation: IUPAC condensed, linker removed
# [1] = target: Neu5Ac(a2-6)Gal(b1-4)GlcNAc(b1-3)Gal(b1-4)GlcNAc(b1-3)Gal(b1-4)GlcNAc(b1-2)Man(a1-3)[Neu5Ac(a2-6)Gal(b1-4)GlcNAc(b1-3)Gal(b1-4)GlcNAc(b1-3)Gal(b1-4)GlcNAc(b1-2)Man(a1-6)]GalNAc
# Summary of the method: (§1)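 Glycan array binding is given as a within-array Z-score, which can be read as non-binding when negative. The arrays, 3228 of them, came from the Consortium for Functional Glycomics database and were retained only where the protein sequence was available. Z-scores were averaged across arrays of the same protein sequence at different concentrations or buffers and across linkers.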
# [2] = target: Neu5Ac(a2-6)Gal(b1-4)GlcNAc(b1-3)Gal(b1-4)GlcNAc(b1-3)GalNAc
# Summary of the method: as §1
# [3] = target: Neu5Ac(a2-6)Gal(b1-4)GlcNAc(b1-3)Gal(b1-4)GlcNAc(b1-3)[Neu5Ac(a2-6)Gal(b1-4)GlcNAc(b1-3)Gal(b1-4)GlcNAc(b1-6)]GalNAc
# Summary of the method: as §1
# [4] = target: Neu5Ac(a2-6)Gal(b1-4)GlcNAc(b1-3)Gal(b1-4)GlcNAc(b1-6)[Gal(b1-3)]GalNAc
# Summary of the method: as §1
# [5] = target: Neu5Ac(a2-6)Gal(b1-4)GlcNAc(b1-3)Gal(b1-4)[Fuc(a1-3)]GlcNAc(b1-3)Gal(b1-4)[Fuc(a1-3)]GlcNAc
# Summary of the method: as §1
# [6] = target: Neu5Ac(a2-6)Gal(b1-4)GlcNAc(b1-3)GalNAc
# Summary of the method: as §1
# [7] = target: Neu5Ac(a2-6)Gal(b1-4)GlcNAc(b1-3)[Neu5Ac(a2-6)Gal(b1-4)GlcNAc(b1-6)]GalNAc
# Summary of the method: as §1
# [8] = target: Neu5Ac(a2-6)Gal(b1-4)GlcNAc(b1-6)GalNAc
# Summary of the method: as §1
# [9] = target: Neu5Ac(a2-6)Gal(b1-4)GlcNAc(b1-6)[Gal(b1-3)GlcNAc(b1-3)]Gal(b1-4)Glc
# Summary of the method: as §1
# [10] = target: Neu5Ac(a2-6)Gal(b1-4)GlcNAc(b1-6)[Gal(b1-3)]GalNAc
# Summary of the method: as §1
# [11] = target: Neu5Ac(a2-6)Gal(b1-4)GlcNAc6S
# Summary of the method: as §1
# Neu5Ac(a2-6)GalNAc = target: Neu5Ac(a2-6)GalNAc
# Summary of the method: as §1
# [12] = target: Neu5Ac(a2-6)GalNAc(b1-4)GlcNAc
# Summary of the method: as §1
# [13] = target: Neu5Ac(a2-6)GalNAc(b1-4)GlcNAc6S
# Summary of the method: as §1
# [14] = target: Neu5Ac(a2-6)GlcNAc(b1-4)GlcNAc
# Summary of the method: as §1
# [15] = target: Neu5Ac(a2-6)GlcNAc(b1-4)GlcNAc(b1-4)GlcNAc
# Summary of the method: as §1
# Neu5Ac(a2-8)Neu5Ac = target: Neu5Ac(a2-8)Neu5Ac
# Summary of the method: as §1
# [16] = target: Neu5Ac(a2-8)Neu5Ac(a2-3)Gal(b1-3)GalNAc(b1-4)[Neu5Ac(a2-3)]Gal(b1-4)Glc
# Summary of the method: as §1
# [17] = target: Neu5Ac(a2-8)Neu5Ac(a2-3)Gal(b1-3)GalNAc(b1-4)[Neu5Ac(a2-8)Neu5Ac(a2-3)]Gal(b1-4)Glc
# Summary of the method: as §1
# [18] = target: Neu5Ac(a2-8)Neu5Ac(a2-3)Gal(b1-4)Glc
# Summary of the method: as §1
# [19] = target: Neu5Ac(a2-8)Neu5Ac(a2-3)Gal(b1-4)GlcNAc
# Summary of the method: as §1
# [20] = target: Neu5Ac(a2-8)Neu5Ac(a2-3)[Gal(b1-3)GalNAc(b1-4)]Gal(b1-4)Glc
# Summary of the method: as §1
# [21] = target: Neu5Ac(a2-8)Neu5Ac(a2-3)[GalNAc(b1-4)]Gal(b1-4)Glc
# Summary of the method: as §1
# [22] = target: Neu5Ac(a2-8)Neu5Ac(a2-8)Neu5Ac
# Summary of the method: as §1
# [23] = target: Neu5Ac(a2-8)Neu5Ac(a2-8)Neu5Ac(a2-3)Gal(b1-4)Glc
# Summary of the method: as §1
# [24] = target: Neu5Ac(a2-8)Neu5Ac(a2-8)Neu5Ac(a2-3)[Gal(b1-3)GalNAc(b1-4)]Gal(b1-4)Glc
# Summary of the method: as §1
# [25] = target: Neu5Ac(a2-8)Neu5Ac(a2-8)Neu5Ac(a2-3)[GalNAc(b1-4)]Gal(b1-4)Glc
# Summary of the method: as §1
# [26] = target: Neu5Ac(a2-8)Neu5Ac(a2-8)Neu5Ac(a2-8)Neu5Ac(a2-3)[GalNAc(b1-4)]Gal(b1-4)Glc
# Summary of the method: as §1
# [27] = target: Neu5Ac(a2-8)Neu5Gc(a2-3)Gal(b1-4)GlcNAc
# Summary of the method: as §1
# [28] = target: Neu5Ac(b2-6)Gal(b1-4)GlcNAc
# Summary of the method: as §1
# Neu5Ac(b2-6)GalNAc = target: Neu5Ac(b2-6)GalNAc
# Summary of the method: as §1
# [29] = target: Neu5Ac9Ac(a2-3)Gal(b1-3)GlcNAc
# Summary of the method: as §1
# [30] = target: Neu5Ac9Ac(a2-3)Gal(b1-4)GlcNAc
# Summary of the method: as §1
# [31] = target: Neu5Ac9Ac(a2-6)Gal(b1-4)GlcNAc
# Summary of the method: as §1
# [32] = target: Neu5Gc(a2-3)Gal(b1-3)GlcNAc
# Summary of the method: as §1
# [33] = target: Neu5Gc(a2-3)Gal(b1-3)[Fuc(a1-4)]GlcNAc
# Summary of the method: as §1
# Neu5Gc(a2-3)Gal(b1-4)Glc = target: Neu5Gc(a2-3)Gal(b1-4)Glc
# Summary of the method: as §1
# [34] = target: Neu5Gc(a2-3)Gal(b1-4)GlcNAc
# Summary of the method: as §1
# [35] = target: Neu5Gc(a2-3)Gal(b1-4)GlcNAc(b1-3)Gal(b1-4)GlcNAc(b1-2)Man(a1-3)[Neu5Gc(a2-3)Gal(b1-4)GlcNAc(b1-3)Gal(b1-4)GlcNAc(b1-2)Man(a1-6)]Man(b1-4)GlcNAc(b1-4)GlcNAc
# Summary of the method: as §1
# [36] = target: Neu5Gc(a2-3)Gal(b1-4)[Fuc(a1-3)]GlcNAc
# Summary of the method: as §1
# [37] = target: Neu5Gc(a2-6)Gal(b1-4)GlcNAc
# Summary of the method: as §1
# Neu5Gc(a2-6)GalNAc = target: Neu5Gc(a2-6)GalNAc
# Summary of the method: as §1
# [38] = target: Neu5Gc(a2-8)Neu5Ac(a2-3)Gal(b1-4)GlcNAc
# Summary of the method: as §1
# [39] = target: Neu5Gc(a2-8)Neu5Gc(a2-3)Gal(b1-4)GlcNAc
# Summary of the method: as §1
# [40] = target: Neu5Gc(a2-8)Neu5Gc(a2-3)Gal(b1-4)GlcNAc(b1-3)Gal(b1-4)GlcNAc
# Summary of the method: as §1
binder,measurement,setting,value
PfulAvr4 (Pseudocercospora fuligena) (protein) HHHHHHDYKDDDDKTYVQDKTPAFVCPAADIKTTKCLGPKDCLYPSPKTCNGYIQCSPADDSYLTGIIHEMPCPSGLLWNDNKKWCDWPENTTCGLVKSAGATEVDATKQGPTPGKYHG,glycan array binding signal (z-score),[1],-0.005
same,glycan array binding signal (z-score),[2],-0.1
same,glycan array binding signal (z-score),[3],-0.095
same,glycan array binding signal (z-score),[4],-0.158
same,glycan array binding signal (z-score),[5],-0.033
same,glycan array binding signal (z-score),[6],-0.155
same,glycan array binding signal (z-score),[7],-0.12
same,glycan array binding signal (z-score),[8],0.004
same,glycan array binding signal (z-score),[9],-0.105
same,glycan array binding signal (z-score),[10],-0.114
same,glycan array binding signal (z-score),[11],-0.111
same,glycan array binding signal (z-score),Neu5Ac(a2-6)GalNAc,-0.079
same,glycan array binding signal (z-score),[12],-0.2
same,glycan array binding signal (z-score),[13],-0.124
same,glycan array binding signal (z-score),[14],-0.012
same,glycan array binding signal (z-score),[15],0.002
same,glycan array binding signal (z-score),Neu5Ac(a2-8)Neu5Ac,-0.092
same,glycan array binding signal (z-score),[16],-0.123
same,glycan array binding signal (z-score),[17],0.146
same,glycan array binding signal (z-score),[18],-0.074
same,glycan array binding signal (z-score),[19],-0.099
same,glycan array binding signal (z-score),[20],-0.093
same,glycan array binding signal (z-score),[21],-0.028
same,glycan array binding signal (z-score),[22],-0.137
same,glycan array binding signal (z-score),[23],-0.158
same,glycan array binding signal (z-score),[24],-0.012
same,glycan array binding signal (z-score),[25],-0.132
same,glycan array binding signal (z-score),[26],-0.054
same,glycan array binding signal (z-score),[27],-0.124
same,glycan array binding signal (z-score),[28],-0.156
same,glycan array binding signal (z-score),Neu5Ac(b2-6)GalNAc,-0.151
same,glycan array binding signal (z-score),[29],-0.107
same,glycan array binding signal (z-score),[30],-0.133
same,glycan array binding signal (z-score),[31],-0.14
same,glycan array binding signal (z-score),[32],-0.161
same,glycan array binding signal (z-score),[33],-0.082
same,glycan array binding signal (z-score),Neu5Gc(a2-3)Gal(b1-4)Glc,-0.048
same,glycan array binding signal (z-score),[34],-0.141
same,glycan array binding signal (z-score),[35],-0.112
same,glycan array binding signal (z-score),[36],-0.132
same,glycan array binding signal (z-score),[37],-0.065
same,glycan array binding signal (z-score),Neu5Gc(a2-6)GalNAc,0.034
same,glycan array binding signal (z-score),[38],0.005
same,glycan array binding signal (z-score),[39],-0.073
same,glycan array binding signal (z-score),[40],-0.178

# Reference: the supplement of paper PMC8728848
